Hit rate of the full screen: of about 1,200 compounds, about 55 (5%) were called active. Roughly 15% stayed inconclusive and do not appear here. Calls follow the shape of the dose curve; as a rule, active = well fitted inhibition curve with a large enough effect; inconclusive = small, poorly fitted or top-dose-only effect; inactive = no such curve, though single readings can be large or run the other way. The list shows a part of the results.
experiment: qHTS Assay to Find Inhibitors of Chronic Active B-Cell Receptor Signaling: Hit Validation in Renilla Reporter Assay; details: TMD8 IkB-Renilla luciferase reporter, NF-kB signaling; series mostly up to 57.5 µM; activity change, negative = inhibition: at the top concentration; also: nearly all actives have a fitted effect of over 70% in size
Procedure, shortened: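 Orthogonal secondary test of primary-screen hits in ABC-DLBCL cells carrying constitutively expressed IkB-Photinus and Renilla luciferase reporters, read by Dual-Glo luminescence; luciferases differ from the primary assay's click beetle enzymes, to exclude assay-specific artifacts.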
% is scaled to controls: 0 for no effect and ±100 for the full control effect; potency is read from the fitted curve at half-maximal effect.

Structure (SMILES) | activity change, negative = inhibition | Potency
CCC(NC(=O)CCc1c(C)c2cc3c4c(oc3cc2oc1=O)CCCC4)C(=O)O (centres undefined) | inactive: -10.2% | –
CCCC1=Nc2cc(C(=O)NCCCOC(C)C)ccc2Sc2ccccc21 | inactive: -14.5% | –
O=c1cc(-c2cccc(F)c2)[nH]c2ccccc12 | inactive: -11% | –
Oc1[nH]c(N=C2N=c3ccccc3=N2)c2ccccc12 | inactive: 24.7% | –
COC(=O)C1=C(C)NC(C)=C(C(=O)OC)C1/C=C/c1ccccc1 | inactive: 22.2% | –
COc1ccc(C(=O)Nc2ccc(-n3nncc3-c3ccc(OC)c(OC)c3)cc2)cc1 | inactive: -26.9% | –
CCOc1ccc(N(CC(=O)Nc2ccccc2C)S(=O)(=O)c2c(C)noc2C)cc1 | inactive: 0.105% | –
Fc1ccc(/C=N/NC2=Nc3cccc4cccc2c34)cc1 | inactive: -28.2% | –
CCCCC[C@H](O)/C=C/C1=C(CCCCCCC(=O)O)C(=O)CC1 | inactive: -22.6% | –
Cc1ccc(C(=O)c2cc([N+](=O)[O-])ccc2N2CCCCC2)cc1 | inactive: 0.979% | –
COc1ccc(C(=O)/C=C2/c3ccccc3CC(C)(C)N2C)cc1 | inactive: -1.53% | –
CC(=O)N1CC(=O)N=C1SCC(=O)Nc1nc(C)c(-c2ccccc2)s1 | inactive: 11.2% | –
COC(=O)C1C(O)=C(C=Nc2cccc3ccccc23)C(=O)CC1(C)C (centres undefined) | inactive: -12.3% | –
Cc1cc(C)c2ccc(/C=N/O)nc2c1O | inactive: -15.7% | –
Cc1ccc2[nH]c(-c3cccc(F)c3)cc(=O)c2c1 | inactive: -13% | –
O=C(OCC(O)CO)c1ccccc1Nc1ccnc2cc(Cl)ccc12 (centres undefined) | inactive: -3.28% | –
CCN(CC)S(=O)(=O)c1ccc(N/N=C(\C)c2ccc(OC)cc2O)nc1 | inactive: -1.31% | –
CCc1ccccc1NC(=S)N=Nc1c(O)n(C)c2ccc(S(=O)(=O)N3CCOCC3)cc12 | inactive: -19.7% | –
Cc1ccc(C2OCC3(CO)COC(c4ccc(C)cc4)N23)cc1 (centres undefined) | inactive: -6.71% | –
COc1cc2c(cc1OC)-c1cc(Nc3ccccc3)nc(=O)n1CC2 | inactive: -2.28% | –
CC(=O)Nc1ccc(S(=O)(=O)N2CCSc3ccccc32)cc1 | inactive: 1.07% | –
NC(=S)N=Nc1c(O)n(CCCl)c2ccccc12 | inactive: -3.64% | –
CCC(=O)NCc1cc(-c2nn(C)c(=O)c3ccccc23)ccc1OC | inactive: 4.27% | –

Structure (SMILES) | activity change, negative = inhibition | Potency
CCCc1nc([N+](=O)[O-])c(S(=O)(=O)c2ccccc2)n1CC(C)C | – | active: 30.1 µM
COc1ccc(/C=N/Nc2nccnc2Cl)c(OC)c1 | inactive: -1.46% | –
Cc1cccc(OCCCN2C(=O)C(=O)c3cc(C)ccc32)c1 | inactive: -16.7% | –
O=C(Nc1nnc(SCc2ccc(F)cc2)s1)c1ccccn1 | inactive: -28.1% | –
Cc1ccsc1/C=N/NC(=O)c1cc(-c2ccncc2)nc2ccccc12 | inactive: -18.9% | –
O=C(NN=C1CCCC1)c1n[nH]c2c1CCCC2 | inactive: 0.76% | –
Cc1cc(NC(=O)CSc2nc3ccccc3c(=O)n2C2CCCC2)no1 | inactive: 1.51% | –
Cc1ccc(C2=NN(C(=O)CSc3nc(N)cc(N)n3)C(c3ccco3)C2)cc1 (centres undefined) | inactive: -19.1% | –
OC[C@H]1O[C@@H](n2cnc3c(NC4CCCC4)ncnc32)[C@H](O)[C@@H]1O | inactive: -9.34% | –
COc1cc2c(cc1OC)-c1cc(Nc3ccc(N(C)C)cc3)nc(=O)n1CC2 | inactive: -16.6% | –
Oc1ccccc1N=Nc1ccccc1O | inactive: -23.5% | –
COC(=O)Nc1nc2ccc(Sc3ccccc3)cc2[nH]1 | inactive: -2.08% | –
CCn1ncc(C2=NOC(C(=O)NCc3ccccc3)C2)c1C (centres undefined) | inactive: -18.4% | –
Cc1c(CCC(=O)N2CCC[C@H]2C(=O)O)c(=O)oc2cc3oc4c(c3cc12)CCCC4 | inactive: -7.75% | –
O=C(c1ccc(Br)cc1)c1cc([N+](=O)[O-])ccc1N1CCCCC1 | inactive: 6.09% | –
COc1cc(OC)c2c(-c3cccc(-c4ccc(N(C)C)cc4)c3)cc(=O)oc2c1 | inactive: -4.65% | –
COc1ccc(C(=O)N2CCc3cc(OC)c(OC)cc3C2c2ccc(OC)c(OC)c2)cc1 (centres undefined) | inactive: -0.384% | –
CC(/C=C/c1ccccc1)=N\NC(=S)NC(C)C | inactive: -10.7% | –
N=C1SCC(=O)N1c1ncc(Cc2ccccc2Cl)s1 | – | active: 8.49 µM
Cc1ccc2c(c1)C(=O)C(=O)N2CC1COc2ccccc2O1 (centres undefined) | inactive: -20.1% | –
COc1ccccc1N1CCN(C(=O)c2cc(=O)c3cc(C)cc(C)c3o2)CC1 | inactive: 3.23% | –
O=c1cc(-c2ccccc2)[nH]c2ccc(F)cc12 | inactive: 0.24% | –
NC(=S)Nc1nc2ccccc2s1 | inactive: 1.39% | –

Structure (SMILES) | activity change, negative = inhibition | Potency
CC(C)CCOc1ccc(CO[C@@H]2[C@H]3OC(C)(C)O[C@H]3O[C@@H]2C(O)CO)cc1 (some centres undefined) | inactive: -0.07% | –
COc1ccc(S(=O)(=O)N2c3ccccc3OCC2C)cc1 (centres undefined) | inactive: 4.32% | –
O=C1N[C@H]2CC=C[C@H]2Nc2ccccc21 | inactive: 4.87% | –
CCOC(=O)C1CCN(S(=O)(=O)c2c(Cl)ccc3nonc23)CC1 | – | active: 3.01 µM
COc1ccc(CCNc2oc(-c3ccc(OC)c(OC)c3)nc2P(=O)(OC)OC)cc1OC | inactive: 3.74% | –
Cc1c(CCC(=O)NCCC(=O)O)c(=O)oc2c(C)c3oc4c(c3cc12)CCCC4 | inactive: -15.5% | –
COc1ccc(NC(=O)C(=O)NCC2CCCN2S(=O)(=O)c2ccc(C)cc2)cc1 (centres undefined) | inactive: 6.31% | –
COc1ccc(C(C)=O)cc1COC(=O)c1ccc(N)c([N+](=O)[O-])c1 | inactive: 6.27% | –
Cc1ccc(C(=O)Sc2cccccc2=O)cc1 | – | active: 6.75 µM
CCOC(=O)c1c(C=O)c2sc(C)cc2n1C | inactive: -0.0596% | –
CN1CCN(Cc2cc(COCc3ccccc3)c3cccnc3c2O)CC1 | inactive: -23.3% | –
COc1ccc(NC(=O)CSc2nc(N)c(C(=O)Nc3ccc(N(C)C)cc3)s2)cc1 | inactive: -1.11% | –
Cc1ccc(CCC(=O)Nc2ncc(Cc3cc(Cl)ccc3Cl)s2)o1 | inactive: -15.7% | –
CCOc1ncccc1C(=O)N1CCN(c2cc(Cl)ccc2C)CC1 | inactive: -5.04% | –
Cc1nc(NC(=O)c2cnccn2)ccc1Br | inactive: -7.88% | –
CC(=O)[C@H]1CC[C@H]2[C@@H]3CCC4=CC(=O)CC[C@]4(C)[C@H]3CC[C@]12C | inactive: -12.9% | –
Cc1c(CCC(=O)N[C@@H](CC(C)C)C(=O)O)c(=O)oc2cc3oc4c(c3cc12)CCCC4 | inactive: 1.51% | –
C=CCc1ccc(OCCOc2ccc(/C=N/n3cnnc3)cc2OCC)c(OC)c1 | inactive: -11.4% | –
CNc1nc2c(N)ncnc2n1[C@H]1O[C@@H](CO)[C@H](O)[C@@H]1O | inactive: 18.6% | –
CCN1C(=O)C(O)(C2COC(C)(C)CC2=O)c2cc(Br)ccc21 (centres undefined) | inactive: -3.6% | –
Fc1ccc(NC(=S)N/N=C/c2ccc(F)c(F)c2)cc1 | inactive: 2.41% | –
COc1ccc(C2=Nn3c(nnc3C3CCCCC3)SC2)cc1OC | inactive: 5.07% | –
COCCCNC(=O)C(=O)Nc1ccc2c(c1)N(S(=O)(=O)c1cccs1)CCC2 | inactive: -3.29% | –
